Some of the results follow. The full chains were built here from the parent and the listed change. Values near 0.05 are background.
B1: TEV protease; numbered along this chain (parent)
chain: MGESLFKGPRDYNPISSSICHLTNESDGHTTSLYGIGFGPFIITNKHLFRRNNGTLVVQSLHGVFKVKDTTTLQQHLVDGRDMIIIRMPKDFPPFPQKLKFREPQREERICLVTTNFQTKSMSSMVSDTSCTFPSGDGIFWKHWIQTKDGQCGSPLVSTRDGFIVGIHSASNFTNTNNYFTSVPKNFMELLTNQEAQQWVSGWRLNADSVLWGGHKVFMVKPEEPFQPVKEATQL

Variants of: B1
Experiment: raw area under fraction-flipped curve 0-4 h after induction (AUC4h, not background-subtracted), DNA-recorder readout of cleavage of the substrate (dimensionless); higher = more cleavage of the substrate by the protease variant
Settings: temperature: 34 °C; time window: 0-4 h after rhamnose induction
Procedure: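 In vivo DNA recorder in E. coli TOP10(DE3) ΔrhaA at 34 °C. Each TEVp single-site mutant (parent TEVp 0) is paired with a single-site variant of the 7-mer TEVs (canonical ENLYFQ|S). The substrate sits between flexible linkers in a Bxb1-sfGFP-TEVs-SsrA fusion, so cleavage stabilises Bxb1 and speeds flipping of a recombination array, read by NGS. The value is the raw area under the fraction-flipped curve over 0-4 h after rhamnose induction (AUC4h), with ≥20 reads per time point. It is not background-subtracted; inactive controls average about 0.047.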
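Also: Bxb1 expression induced with 0.2% (w/v) L-rhamnose at OD600 near 0.5, cultures sampled hourly, flipped fraction per protease–substrate barcode pair counted by paired-end Illumina sequencing.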

Variant | area with substrate EALYFQS | area with substrate ESLYFQS | area with substrate EHLYFQS | area with substrate EILYFQS | area with substrate EMLYFQS | area with substrate EVLYFQS | area with substrate EELYFQS | area with substrate EKLYFQS | area with substrate ELLYFQS | area with substrate EQLYFQS
MGESLFKGPRDYNPISSSICHLTNESDGHTTSLYGIGFGPFIITNKHLFRRNNGTLVVQSLHGVFKVKDTTTLQQHLVDGRDMIIIRMPKDFPPFPQKLKFREPQREERICLVTTNFQTKSMSSMVSDTSCTFPSGDGIFWKHWIQTKDGQCGSPLVSTRDVFIVGIHSASNFTNTNNYFTSVPKNFMELLTNQEAQQWVSGWRLNADSVLWGGHKVFMVKPEEPFQPVKEATQL [G162V] | 0.0511 | 0.0746 | – | – | – | – | – | – | – | –
MGESLFKGPRDYNPISSSICHLTNESDGHTTSLYGIGFGPFIITNKHLFRRNNGTLVVQSLHGVFKVKDTTTLQQHLVDGRDMIIIRMPKDFPPFPQKLKFREPQREERICLVTTNFQTKSMSSMVSDTSCTFPSGDGIFWKHWIQTKDGQCGSPLVSTRDGDIVGIHSASNFTNTNNYFTSVPKNFMELLTNQEAQQWVSGWRLNADSVLWGGHKVFMVKPEEPFQPVKEATQL [F163D] | 0.111 | – | 0.0549 | 0.0879 | 0.099 | 0.0463 | – | – | – | –
MGESLFKGPRDYNPISSSICHLTNESDGHTTSLYGIGFGPFIITNKHLFRRNNGTLVVQSLHGVFKVKDTTTLQQHLVDGRDMIIIRMPKDFPPFPQKLKFREPQREERICLVTTNFQTKSMSSMVSDTSCTFPSGDGIFWKHWIQTKDGQCGSPLVSTRDGKIVGIHSASNFTNTNNYFTSVPKNFMELLTNQEAQQWVSGWRLNADSVLWGGHKVFMVKPEEPFQPVKEATQL [F163K] | 0.102 | – | – | 0.103 | – | – | 0.133 | 0.103 | 0.0912 | 0.111
MGESLFKGPRDYNPISSSICHLTNESDGHTTSLYGIGFGPFIITNKHLFRRNNGTLVVQSLHGVFKVKDTTTLQQHLVDGRDMIIIRMPKDFPPFPQKLKFREPQREERICLVTTNFQTKSMSSMVSDTSCTFPSGDGIFWKHWIQTKDGQCGSPLVSTRDGFIVGIHSSSNFTNTNNYFTSVPKNFMELLTNQEAQQWVSGWRLNADSVLWGGHKVFMVKPEEPFQPVKEATQL [A170S] | 0.0691 | 0.064 | – | 0.0569 | 0.0564 | – | – | 0.0632 | – | –
MGESLFKGPRDYNPISSSICHLTNESDGHTTSLYGIGFGPFIITNKHLFRRNNGTLVVQSLHGVFKVKDTTTLQQHLVDGRDMIIIRMPKDFPPFPQKLKFREPQREERICLVTTNFQTKSMSSMVSDTSCTFPSGDGIFWKHWIQTKDGQCGSPLVSTRDGFIVGIHSAINFTNTNNYFTSVPKNFMELLTNQEAQQWVSGWRLNADSVLWGGHKVFMVKPEEPFQPVKEATQL [S171I] | 0.0676 | – | – | – | – | – | – | – | – | –
MGESLFKGPRDYNPISSSICHLTNESDGHTTSLYGIGFGPFIITNKHLFRRNNGTLVVQSLHGVFKVKDTTTLQQHLVDGRDMIIIRMPKDFPPFPQKLKFREPQREERICLVTTNFQTKSMSSMVSDTSCTFPSGDGIFWKHWIQTKDGQCGSPLVSTRDGFIVGIHSASNTTNTNNYFTSVPKNFMELLTNQEAQQWVSGWRLNADSVLWGGHKVFMVKPEEPFQPVKEATQL [F173T] | 0.088 | 0.0822 | – | 0.1 | 0.0724 | – | 0.116 | 0.0829 | – | 0.0976
MGESLFKGPRDYNPISSSICHLTNESDGHTTSLYGIGFGPFIITNKHLFRRNNGTLVVQSLHGVFKVKDTTTLQQHLVDGRDMIIIRMPKDFPPFPQKLKFREPQREERICLVTTNFQTKSMSSMVSDTSCTFPSGDGIFWKHWIQTKDGQCGSPLVSTRDGFIVGIHSASNFCNTNNYFTSVPKNFMELLTNQEAQQWVSGWRLNADSVLWGGHKVFMVKPEEPFQPVKEATQL [T174C] | 0.0825 | 0.0971 | 0.0846 | 0.0756 | 0.0831 | – | – | – | – | 0.0796
MGESLFKGPRDYNPISSSICHLTNESDGHTTSLYGIGFGPFIITNKHLFRRNNGTLVVQSLHGVFKVKDTTTLQQHLVDGRDMIIIRMPKDFPPFPQKLKFREPQREERICLVTTNFQTKSMSSMVSDTSCTFPSGDGIFWKHWIQTKDGQCGSPLVSTRDGFIVGIHSASNFENTNNYFTSVPKNFMELLTNQEAQQWVSGWRLNADSVLWGGHKVFMVKPEEPFQPVKEATQL [T174E] | 0.108 | – | 0.0828 | – | – | – | – | – | – | –
MGESLFKGPRDYNPISSSICHLTNESDGHTTSLYGIGFGPFIITNKHLFRRNNGTLVVQSLHGVFKVKDTTTLQQHLVDGRDMIIIRMPKDFPPFPQKLKFREPQREERICLVTTNFQTKSMSSMVSDTSCTFPSGDGIFWKHWIQTKDGQCGSPLVSTRDGFIVGIHSASNFTATNNYFTSVPKNFMELLTNQEAQQWVSGWRLNADSVLWGGHKVFMVKPEEPFQPVKEATQL [N175A] | 0.0721 | 0.0846 | 0.0774 | 0.0641 | – | 0.0659 | – | 0.0822 | 0.0746 | 0.0937
MGESLFKGPRDYNPISSSICHLTNESDGHTTSLYGIGFGPFIITNKHLFRRNNGTLVVQSLHGVFKVKDTTTLQQHLVDGRDMIIIRMPKDFPPFPQKLKFREPQREERICLVTTNFQTKSMSSMVSDTSCTFPSGDGIFWKHWIQTKDGQCGSPLVSTRDGFIVGIHSASNFTNTGNYFTSVPKNFMELLTNQEAQQWVSGWRLNADSVLWGGHKVFMVKPEEPFQPVKEATQL [N177G] | 0.0747 | – | – | 0.0611 | 0.0682 | 0.0683 | – | 0.0392 | 0.055 | 0.0867

Same assay, conditions: temperature: 34 °C; time window: 0-4 h after rhamnose induction

Variant | area with substrate EDLYFQS | area with substrate ETLYFQS | area with substrate EWLYFQS | area with substrate ERLYFQS | area with substrate EGLYFQS | area with substrate EPLYFQS | area with substrate EYLYFQS | area with substrate EFLYFQS
MGESLFKGPRDYNPISSSICHLTNESDGHTTSLYGIGFGPFIITNKHLFRRNNGTLVVQSLHGVFKVKDTTTLQQHLVDGRDMIIIRMPKDFPPFPQKLKFREPQREERICLVTTNFQTKSMSSMVSDTSCTFPSGDGIFWKHWIQTKDGQCGSPLVSTRDGFIVGIHSSSNFTNTNNYFTSVPKNFMELLTNQEAQQWVSGWRLNADSVLWGGHKVFMVKPEEPFQPVKEATQL [A170S] | 0.076 | 0.0897 | 0.0676 | – | – | – | – | –
MGESLFKGPRDYNPISSSICHLTNESDGHTTSLYGIGFGPFIITNKHLFRRNNGTLVVQSLHGVFKVKDTTTLQQHLVDGRDMIIIRMPKDFPPFPQKLKFREPQREERICLVTTNFQTKSMSSMVSDTSCTFPSGDGIFWKHWIQTKDGQCGSPLVSTRDGFIVGIHSAINFTNTNNYFTSVPKNFMELLTNQEAQQWVSGWRLNADSVLWGGHKVFMVKPEEPFQPVKEATQL [S171I] | – | – | 0.0648 | 0.0538 | – | – | – | –
MGESLFKGPRDYNPISSSICHLTNESDGHTTSLYGIGFGPFIITNKHLFRRNNGTLVVQSLHGVFKVKDTTTLQQHLVDGRDMIIIRMPKDFPPFPQKLKFREPQREERICLVTTNFQTKSMSSMVSDTSCTFPSGDGIFWKHWIQTKDGQCGSPLVSTRDGFIVGIHSASNTTNTNNYFTSVPKNFMELLTNQEAQQWVSGWRLNADSVLWGGHKVFMVKPEEPFQPVKEATQL [F173T] | 0.0993 | – | – | 0.0834 | 0.0645 | 0.0991 | 0.144 | –
MGESLFKGPRDYNPISSSICHLTNESDGHTTSLYGIGFGPFIITNKHLFRRNNGTLVVQSLHGVFKVKDTTTLQQHLVDGRDMIIIRMPKDFPPFPQKLKFREPQREERICLVTTNFQTKSMSSMVSDTSCTFPSGDGIFWKHWIQTKDGQCGSPLVSTRDGFIVGIHSASNFCNTNNYFTSVPKNFMELLTNQEAQQWVSGWRLNADSVLWGGHKVFMVKPEEPFQPVKEATQL [T174C] | – | 0.0848 | – | – | – | 0.0887 | – | –
MGESLFKGPRDYNPISSSICHLTNESDGHTTSLYGIGFGPFIITNKHLFRRNNGTLVVQSLHGVFKVKDTTTLQQHLVDGRDMIIIRMPKDFPPFPQKLKFREPQREERICLVTTNFQTKSMSSMVSDTSCTFPSGDGIFWKHWIQTKDGQCGSPLVSTRDGFIVGIHSASNFENTNNYFTSVPKNFMELLTNQEAQQWVSGWRLNADSVLWGGHKVFMVKPEEPFQPVKEATQL [T174E] | – | – | – | 0.0882 | – | 0.0837 | – | –
MGESLFKGPRDYNPISSSICHLTNESDGHTTSLYGIGFGPFIITNKHLFRRNNGTLVVQSLHGVFKVKDTTTLQQHLVDGRDMIIIRMPKDFPPFPQKLKFREPQREERICLVTTNFQTKSMSSMVSDTSCTFPSGDGIFWKHWIQTKDGQCGSPLVSTRDGFIVGIHSASNFTATNNYFTSVPKNFMELLTNQEAQQWVSGWRLNADSVLWGGHKVFMVKPEEPFQPVKEATQL [N175A] | 0.106 | – | 0.105 | 0.0698 | – | 0.0676 | 0.0898 | –
MGESLFKGPRDYNPISSSICHLTNESDGHTTSLYGIGFGPFIITNKHLFRRNNGTLVVQSLHGVFKVKDTTTLQQHLVDGRDMIIIRMPKDFPPFPQKLKFREPQREERICLVTTNFQTKSMSSMVSDTSCTFPSGDGIFWKHWIQTKDGQCGSPLVSTRDGFIVGIHSASNFTNTGNYFTSVPKNFMELLTNQEAQQWVSGWRLNADSVLWGGHKVFMVKPEEPFQPVKEATQL [N177G] | – | – | 0.0709 | 0.0644 | 0.0739 | 0.0951 | – | 0.0702
